Experimental data reported in PubChem BioAssay AID686978 (National Center for Advancing Translational Sciences (NCATS), 2013).
Screen size: about 420,000 compounds; about 64,000 (15%) were called active. The inconclusive results got no clear call from the source; some entries with a clear call stand among them for comparison. The call rests on the fitted dose curve; in most records, active means well fitted inhibition curve with a large enough effect; inconclusive means small, poorly fitted or top-dose-only effect; inactive means flat fitted curve, though single readings scatter. Potencies of inconclusive entries are left out as doubtful fits.

Assay: qHTS for Inhibitors of human tyrosyl-DNA phosphodiesterase 1 (TDP1): qHTS in cells in absence of CPT; further: nearly all actives have a fitted effect of over 55% in size
Conditions: DT40 Tdp1-/- hTDP1 cells, no CPT, ATP luminescence, 48 h; activity change, negative = growth inhibition: at 46.2 µM (top of the series) unless noted
Outline: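 Chicken DT40 Tdp1-/- cells stably complemented with human TDP1 were seeded at 400 cells/well with DMSO in place of 20 nM camptothecin. After compound pinning, cells grew at least 48 hr at 37 °C; viability read by CellTiter-Glo luminescence.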
On the % scale 0 is the no-effect control and ±100 the full control effect; potency means the concentration at half of the fitted maximal effect; tags describe the fitted curve by direction and shape.

Row | Structure (SMILES) | activity change, negative = growth inhibition | Potency
1 | O=C(CSc1ncn(-c2ccccc2)n1)c1cccs1 | inactive: -14.9% | 
2 | Cc1cc(C)c2c(=O)n(CC(=O)Nc3cccc(Cl)c3C)sc2n1 |  | active: 3.66 µM
3 | Cc1cc(C)c2sc(N(CCCN(C)C)C(=O)c3ccc(S(=O)(=O)N4CCCc5ccccc54)cc3)nc2c1 |  | active: 9.2 µM
4 | O=C(CNC(=O)c1cncc(Br)c1)Nc1ccc(F)c(F)c1F | inactive: -16.7% | 
5 | COc1cc2c(cc1OC)-c1c(oc3cc(O)cc(O)c3c1=O)CO2 |  | inconclusive [inhibitor, partial curve]
6 | COC(=O)c1scc(-c2ccccc2)c1S(=O)(=O)Nc1ccc(C)c(Cl)c1 |  | inconclusive [inhibitor, single point]
7 | CCOc1ccc(-c2cc(C(=O)N/N=C(\C)c3cccnc3)c3ccccc3n2)cc1 |  | inconclusive [inhibitor, partial curve, poor fit]
8 | OC[C@@H](O)[C@H](O)[C@H](O)[C@@H](O)CO |  | inactive
9 | Cc1cccc(C)c1-n1nnnc1C1(C)CCC(=O)N1Cc1ccco1 (stereo not drawn) | inactive: -13.6% | 
10 | CCN1C(=O)[C@@H]2Cc3c([nH]c4ccccc34)C(c3ccc(OC)cc3)N2C1=S (stereo partly drawn) |  | active: 14.6 µM
11 | O=C(CC1C(=O)NCCN1Cc1cccc(Oc2ccccc2)c1)NCCc1ccncc1 (stereo not drawn) |  | inconclusive [inhibitor, single point]
12 | CC(C)(C)c1ccc(C(=O)NNC(=S)NC(=O)c2cccnc2)cc1 |  | active: 7.31 µM
13 | O=C(Cc1ccc(Cl)cc1)N/N=C/c1ccc(O)c(O)c1 |  | active: 13 µM
14 | O=C(Nc1nc(-c2ccc3c(c2)Cc2ccccc2-3)cs1)c1ccccc1 |  | inconclusive [inhibitor, partial curve, poor fit]
15 | COc1ccc(C2C=C(c3ccccc3)Nc3nc(NC(=O)/C=C/c4ccccc4OC)nn32)cc1 (stereo not drawn) |  | active: 2.59 µM
16 | Fc1ccc(CCNc2ncnc3[nH]ncc23)cc1 |  | active: 16.4 µM
17 | Cc1cc(=O)oc2cc(Oc3ncccn3)ccc12 | inactive: -12.6% | 
18 | O=C(c1cccc(S(=O)(=O)N2CCc3ccccc3C2)c1)N1CCN(c2ccc(O)cc2)CC1 |  | active: 11.6 µM
19 | COc1ccc(C(=O)NC(=S)Nc2cccc(NC(=O)c3ccco3)c2)cc1[N+](=O)[O-] |  | inconclusive [inhibitor, partial curve, poor fit]
20 | CCCn1cc(CN2CCC(n3nccc3NC(=O)C(OC)c3ccccc3)CC2)c(C)n1 (stereo not drawn) |  | inconclusive [inhibitor, partial curve]
21 | O=[N+]([O-])c1ccc(S(=O)(=O)CC2CSc3nc4ccccc4n32)cc1 (stereo not drawn) |  | active: 11.6 µM
22 | COc1ccc(S(=O)(=O)N2CCCC2)cc1C(C)C |  | inconclusive [inhibitor, single point]
23 | Cc1ccc(S(=O)(=O)N/N=C\c2ccc(Cl)c([N+](=O)[O-])c2)cc1 | inactive: -16% | 
24 | Cc1ccc(CN(Cc2ccccc2)C(=S)Nc2ccccc2C)o1 |  | inconclusive [inhibitor, single point]
25 | Cn1c(CNC(=O)OC(C)(C)C)nnc1SCC(=O)N1CCOCC1 | inactive: 1.58% | 

Row | Structure (SMILES) | activity change, negative = growth inhibition | Potency
26 | CCc1ccc(S(=O)(=O)c2nnn3c2nc(NC(C)C)c2cc(Cl)ccc23)cc1 |  | inconclusive [inhibitor, single point]
27 | CCC(=O)N1CCc2cc(Br)cc(S(=O)(=O)N3CCCC(C(=O)Nc4ccc(OC)cc4OC)C3)c21 (stereo not drawn) | inactive: -16.9% | 
28 | Cc1cccc(N(CC(=O)N(C)Cc2ccccc2)S(=O)(=O)c2ccccc2)c1C |  | active: 23.1 µM
29 | CC(C)C(=O)N1CCN(C2=NS(=O)(=O)c3ccccc32)CC1 |  | inconclusive [inhibitor, single point]
30 | Nc1c(S(=O)(=O)c2cc(Cl)ccc2Cl)c2nc3ccccc3nc2n1CCN1CCOCC1 |  | inconclusive [inhibitor, single point]
31 | CC(=O)N1N=C(c2ccco2)CC1c1cc2ccc(C)cc2nc1Cl (stereo not drawn) |  | inconclusive [inhibitor, single point]
32 | O=C(Nc1nc2ccccc2s1)c1ccc(Cl)s1 |  | inconclusive [inhibitor, single point]
33 | COc1ccc(NC2CC(=O)N(C)C2=O)cc1 (stereo not drawn) | inactive: -6.54% | 
34 | O=C(CN1CCN(CC(=O)Nc2ccccc2Cc2ccccc2)CC1)Nc1ccccc1Cl |  | active: 11.6 µM
35 | COc1ccccc1CNC(=O)c1ccc(CS(=O)c2ccccc2Cl)o1 (stereo not drawn) |  | inconclusive [inhibitor, single point]
36 | Cc1ccccc1CNC(=O)c1csc([C@@H]2C[C@H](O)[C@@H](CO)O2)n1 | inactive: -10.3% | 
37 | CCNS(=O)(=O)c1ccc(CCC(=O)N2CCN(c3ccc(OC)cc3)CC2)cc1 |  | inconclusive [inhibitor, single point]
38 | Cc1ccc(C(=O)NCC(=O)OCC(=O)Nc2cc(S(=O)(=O)N3CCOCC3)ccc2C)cc1 | inactive: -11% | 
39 | O=c1cc(CO)[nH]cc1OCc1ccccc1 | inactive: -24.4% | 
40 | COc1cccc(OCc2cc(C3Nc4ccccc4C(=O)N3c3ccccc3)ccc2OC)c1 (stereo not drawn) |  | active: 12.6 µM
41 | CC(=O)c1cc(-c2ccccc2)n(CCC(=O)NC2CCCCC2)c1C |  | inconclusive [inhibitor, partial curve, poor fit]
42 | Cc1cccc([C@@H]2[C@@H]3C(=O)N(Cc4ccccc4)C(=O)[C@@H]3[C@]3(C)C(=O)N(c4cccc(Cl)c4)C(=O)N23)c1 |  | inconclusive [inhibitor, single point]
43 | CC12CN3CC(c4ccccc4)(CN(C1)C3c1ccc(Cl)cc1)C2=O (stereo not drawn) |  | inconclusive [inhibitor, single point]
44 | CNc1ccccc1C(=O)OC(C)C(=O)Nc1ccc(S(=O)(=O)N2CCCC2)cc1 (stereo not drawn) |  | inconclusive [inhibitor, single point]
45 | COc1cc(C(=O)NNC(=S)NC(=O)c2ccc(F)cc2)cc(OC)c1OC |  | inconclusive [inhibitor, single point]
46 | O=C(CSc1nc2ccccc2c(=O)n1CCCO)N1CCc2ccccc21 |  | inconclusive [inhibitor, single point]
47 | CCOC(=O)c1[nH]c2ccc(OC)cc2c1NC(=O)CCN1CCN(Cc2ccccc2)CC1 |  | inconclusive [inhibitor, partial curve]
48 | Nc1nc(COc2ccc(Cl)cc2)cs1 | inactive: -11.2% | 
49 | CC(C)C(=O)N1CCC1(C)C(=O)Nc1ccc2[nH]ccc2c1 (stereo not drawn) | inactive: 7.08% | 
50 | CCCNC(=O)COC(=O)c1[nH]c(C)c(C(=O)OCC)c1C | inactive: -20.6% | 

Row | Structure (SMILES) | activity change, negative = growth inhibition | Potency
51 | CCN(CC)S(=O)(=O)c1ccc(NC(=O)C(C)N(c2ccccc2)S(C)(=O)=O)cc1 (stereo not drawn) |  | inconclusive [inhibitor, single point]
52 | Cc1ccc(Nc2nnc(SCC(=O)NCC3CCCO3)s2)cc1C (stereo not drawn) | inactive: -25.7% | 
53 | COc1ccc(N2CCN(c3oc(/C=C/c4ccccc4OC)nc3C#N)CC2)cc1 |  | inconclusive [inhibitor, partial curve]
54 | COc1ccc(NC(=O)C(=O)NCc2ccco2)c(OC)c1 | inactive: -24.4% | 
55 | CCc1cccc2c(C(=O)CN3C(=O)NC(C)(c4cccc5ccccc45)C3=O)c[nH]c12 (stereo not drawn) |  | inconclusive [inhibitor, single point]
56 | Cc1cccc(C)c1NC(=O)C(c1ccncc1)n1c(=O)c(-c2ccccc2)nc2ccccc21 (stereo not drawn) | inconclusive: -31% [inhibitor] | 
57 | O=C(Nc1ccc2c(c1)OCCO2)c1cc2sccc2n1Cc1ccc(F)cc1 |  | inconclusive [inhibitor, single point]
58 | C/C(=N\NC(=O)COc1ccc(C)cc1[N+](=O)[O-])c1cccs1 |  | inconclusive [inhibitor, single point]
59 | Cc1cc(NS(=O)(=O)c2ccc(NC(=S)NC(=O)c3cccnc3)cc2)no1 | inactive: -2.97% | 
60 | CC(OC(=O)c1ccc([N+](=O)[O-])cc1)C(=O)NCC1CCCCC1 (stereo not drawn) |  | inconclusive [inhibitor, single point]
61 | COc1ccc(C(=O)NC2CC3CCCC(C2)N3Cc2ccccc2)c(OC)c1 (stereo not drawn) | inactive: -14.3% | 
62 | CCOC(=O)C1=C(COc2ccccc2)NC(=O)NC1c1ccc(Cl)cc1 (stereo not drawn) |  | inconclusive [inhibitor, single point]
63 | CC(=O)Nc1cc(-c2cccc(N)c2)cn2c(-c3ccc(C(C)=O)cc3)cnc12 |  | active: 10.3 µM
64 | CC1(C(=O)Nc2ccc3ccccc3c2)CCC(=O)N1CCc1c[nH]c2ccccc12 (stereo not drawn) |  | inconclusive [inhibitor, single point]
65 | Clc1cccc(Cc2c(-c3cccc(Br)c3)nc3ccc(Cl)cn23)c1 |  | inconclusive [inhibitor, single point]
66 | COc1cccc(N2CCN(CC(=O)NC(C)c3ccccc3)CC2)c1 (stereo not drawn) | inactive: 4.93% | 
67 | Cc1n(CC(=O)c2ccc(F)cc2)c2ccccc2[n+]1C | inactive: -0.603% | 
68 | CC1(c2nnnn2Cc2ccccc2)CCC(=O)N1Cc1cccnc1 (stereo not drawn) | inactive: -8.72% | 
69 | CCOC(=O)c1cc2nc(-c3ccco3)cc(C(F)(F)F)n2n1 |  | inconclusive [inhibitor, single point]
70 | N#Cc1ccc(C(=O)Nc2cccc3ccccc23)c(F)c1 | inactive: 1.99% | 
71 | CCOc1cc(NC(=O)C2CC2)c(OCC)cc1NC(=O)c1cccc(F)c1 | inactive: -20.4% | 
72 | O=C(COc1ccc(-c2ccccc2)cc1)N/N=C/c1cccnc1 |  | inconclusive [inhibitor, single point]
73 | N#Cc1ccc(/C=C(\C(=O)C(=O)O)c2ccc3ccccc3n2)cc1 |  | inconclusive [inhibitor, single point]
